In all, about 16,000 compounds went through this assay and about 120 (0.75%) were called active. Inconclusive results (about 4%) are left out. Calls follow the shape of the dose curve; as a rule, active = well fitted inhibition curve with a large enough effect; inconclusive = small, poorly fitted or top-dose-only effect; inactive = no such curve, though single readings can be large or run the other way. Some of the results follow.

For this test, the target named is Rap guanine nucleotide exchange factor 3 (Homo sapiens) (UniProt O95398). The test can be described thus: Validation qHTS for antagonist of cAMP-regulated guanine nucleotide exchange factor 3 (EPAC1).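 Also: plate controls were DMSO for no effect and ATA control for full effect; nearly all actives have a fitted effect of over 75% in size.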 The following applies: EPAC1 Rap1B-BODIPY-GDP exchange, fluorescence; series mostly up to 150 µM; activity change, negative = inhibition: at the top concentration. In outline: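 EPAC1 (100 nM) mixed with 250 nM RAP1B-BODIPY-GDP and 50 uM GDP; compounds in concentration series, 5 min at room temperature. Fluorescence (ex 480/em 540 nm) read every 5 min for 30 min; normalized to ATA control and DMSO.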
UniProt O95398, sequence (O95398 whole entry, looked up): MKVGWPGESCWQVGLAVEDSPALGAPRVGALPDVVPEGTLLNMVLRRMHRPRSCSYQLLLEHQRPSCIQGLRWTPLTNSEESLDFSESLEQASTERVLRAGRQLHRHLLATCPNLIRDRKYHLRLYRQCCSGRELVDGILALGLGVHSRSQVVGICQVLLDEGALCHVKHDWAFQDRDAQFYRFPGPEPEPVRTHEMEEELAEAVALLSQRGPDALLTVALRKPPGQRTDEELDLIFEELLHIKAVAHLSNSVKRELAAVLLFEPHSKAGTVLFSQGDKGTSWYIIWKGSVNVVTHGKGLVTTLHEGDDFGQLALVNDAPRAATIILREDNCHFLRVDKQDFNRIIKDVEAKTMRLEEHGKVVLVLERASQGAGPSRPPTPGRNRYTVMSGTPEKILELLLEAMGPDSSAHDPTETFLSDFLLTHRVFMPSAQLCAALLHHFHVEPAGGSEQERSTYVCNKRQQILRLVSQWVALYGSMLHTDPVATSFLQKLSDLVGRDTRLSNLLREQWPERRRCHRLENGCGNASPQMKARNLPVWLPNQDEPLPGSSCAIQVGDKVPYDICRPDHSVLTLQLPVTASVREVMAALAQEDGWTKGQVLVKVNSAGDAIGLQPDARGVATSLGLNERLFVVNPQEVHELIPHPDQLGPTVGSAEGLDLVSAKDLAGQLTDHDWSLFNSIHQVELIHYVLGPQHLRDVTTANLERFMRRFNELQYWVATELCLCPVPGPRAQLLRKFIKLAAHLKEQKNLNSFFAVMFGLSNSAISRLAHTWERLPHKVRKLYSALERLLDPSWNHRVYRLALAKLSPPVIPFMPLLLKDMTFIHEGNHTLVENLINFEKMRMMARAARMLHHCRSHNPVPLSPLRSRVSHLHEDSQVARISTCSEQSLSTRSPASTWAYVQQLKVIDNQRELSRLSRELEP
As for `COc1ccc2c(c1)CCc1cnc(-n3ncc(C(=O)NCCCc4ccncc4)c3C)nc1-2`, the “activity change, negative = inhibition” value is inactive: -2.74%. On to `CC(C)CN1CCC2(CC1)CCN(C(=O)c1cccc(F)c1)CC2`, for which the “activity change, negative = inhibition” value was inactive: 15.5%. The figure for `O=S(=O)(O)CCCS(=O)(=O)O` is inactive: 9.94%. Under `COC(=O)c1ccc(C(=O)NCC2Cc3cc(F)cc(-c4cncnc4)c3O2)cc1` (centres undefined) stands inactive: 3.99%; under `CCCCCCCCCCCC(=O)OC[C@@H](O)C1OC[C@H](O)[C@H]1O` (some centres undefined), inactive: -21.7%; under `CCOC(=O)c1ccc(OCCN2C[C@H](O)[C@@H](O)[C@H](O)[C@H]2CO)cc1`, inactive: 6.74%. The figure for `Nc1cccc2c1CN(C1CCC(=O)NC1=O)C2=O` (centres undefined) is inactive: 19%. As to `CCCCCCCCCCCCCCCC(C)C1=NCCN1` (centres undefined), the “activity change, negative = inhibition” value was inactive: 1.16%. With `O=C(Nc1cccc(F)c1)N1CC[C@@]2(CCCN(C(=O)c3csnn3)C2)C1`, the “activity change, negative = inhibition” value was inactive: 17.7%. Turning to `CC(=O)Oc1c(C)c(C)c2c(c1C)CCC(C)(CCCC(C)CCCC(C)CCCC(C)C)O2` (centres undefined), the activity change, negative = inhibition entry was “inactive”. With `COc1ccc(C(=O)N2CCC3(CCN(Cc4ccc(C#N)cc4)CC3)CC2)cc1`, the “activity change, negative = inhibition” value is inactive: 19.9%. In the case of `COCCn1c(=O)c(-c2cc(F)cc(F)c2)nc2cnc(N(C)C)nc21`, the “activity change, negative = inhibition” value is inactive: 11.4%.

With `O=c1c(O)c(-c2ccccc2)oc2ccc3occc3c12`, the “activity change, negative = inhibition” value was inactive: 2.88%. Take `CO[C@]1(NC(=O)CSC(F)F)C(=O)N2C(C(=O)O)=C(CSc3nnnn3CCO)CO[C@H]21`: the “activity change, negative = inhibition” value is inactive: 44.9%. Consider `O=C(C[n+]1cccc2cccc(O)c21)c1ccc(F)cc1`, for which the “activity change, negative = inhibition” value is inactive: 7.1%. Take `Cc1nc2cnc(Oc3cccc(Cl)c3)nc2n(C[C@H]2CCCO2)c1=O`: the “activity change, negative = inhibition” value was inactive: 16.8%. In the case of `CC(C)NC(=O)N1CC[C@@]2(CCCN(C(=O)Oc3ccccc3)C2)C1`, the “activity change, negative = inhibition” value was inactive: -2.29%. Under `COC(=O)[C@@H]1CCCN1C(=O)c1cc(NC(=O)c2ccccc2)cc2ncn(C3CCCC3)c12` stands inactive: 3.96%. Turning to `Cc1ncc2c(c1CNC(=O)c1ccsc1)CCN(C(=O)c1c(F)cccc1Cl)C2`, the “activity change, negative = inhibition” value is inactive: 8.26%.

With `Cn1cccc1C(=O)N1CCC2(CCCN(C(c3ccccc3)c3ccccc3)C2)CC1`, the “activity change, negative = inhibition” value was inactive: 8.48%. On to `CCNc1ncc2nc(-c3ccc(Cl)cc3)c(=O)n(C[C@H]3CCCO3)c2n1`, for which the “activity change, negative = inhibition” value was inactive: 17.9%. `Cc1cnc(C)c(-c2cc(F)cc3c2OC(CNC(=O)Cc2c(C)noc2C)C3)n1` (centres undefined): the “activity change, negative = inhibition” value is inactive: 0.496%. Regarding `COc1ccc(-c2coc3c(OC)c(OC)cc(O)c3c2=O)cc1`, the “activity change, negative = inhibition” value is inactive: -16.4%.

As for `C=C1[C@@H](O)CN(Cc2ccc(OC)cc2)S1(=O)=O`, the “activity change, negative = inhibition” value was inactive: 13.5%.

On to `COCCn1c(=O)c(-c2cc(F)cc(F)c2)nc2cnc(Oc3ccccc3)nc21`, for which the “activity change, negative = inhibition” value is inactive: -0.311%. On to `CC(C)COC(=O)c1ccc(N)cc1`, for which the “activity change, negative = inhibition” value was inactive: -0.856%. Under `COc1ccc(C(=O)c2ccc(O)cc2)c(O)c1O` stands inactive: -0.0129%; under `COc1cc(=O)n2c(c1C(=O)N(C)Cc1cscn1)CCN(Cc1c(C)[nH]c3ccccc13)CC2`, inactive: 18.3%. Under `O=C1N(c2ccccc2)c2ccccc2C1(Cc1ccncc1)Cc1ccncc1` stands “inactive”; under `Cc1nc2cnc(N(C)C)nc2n(CCc2ccccc2)c1=O`, inactive: -7.54%. `Cn1cc(/C=C/c2ccc3ccccc3n2)c2ccccc21`: the “activity change, negative = inhibition” value was inactive: 13.3%. Take `CCCn1c(=O)c2[nH]c(-c3ccc(S(=O)(=O)O)cc3)nc2n(CCC)c1=O`: the “activity change, negative = inhibition” value was inactive: -4.74% [at 75.8 µM]. The entry for `CC[C@H](NC(C)C)[C@H](O)c1ccc(O)c2[nH]c(=O)ccc12` is “inactive”; for `CCCCCCCC(=O)O` it is inactive: -0.714%. Under `Cc1ccccc1N1C(=O)c2cc(S(N)(=O)=O)c(Cl)cc2NC1C` (centres undefined) stands “inactive”; under `O=C(O)CNC(=O)c1ccccc1I`, inactive: 16.6%; under `O=C(c1cccc(F)c1)N1CCC2(CCCN(C(c3ccccc3)c3ccccc3)C2)CC1`, inactive: 0.606%. The figure for `O=C1C(=O)c2ncccc2-c2cccnc21` is inactive: 2.27%; for `COc1ccc(-n2c(=O)c(C)nc3cnc(N(C)C)nc32)cc1` it is inactive: 7.69%.

For `OCCOCCN1CCN(C(c2ccccc2)c2ccc(Cl)cc2)CC1` (centres undefined), the “activity change, negative = inhibition” value was inactive: 42.3%. The figure for `C[C@]12CCC(=O)C[C@@H]1CC[C@@H]1[C@@H]2CC[C@]2(C)C=CC[C@@H]12` is inactive: -15.4%. As for `O=C(O)c1ccc2c3c1cccc3c(=O)n1c3ccccc3nc21`, the “activity change, negative = inhibition” value is inactive: 3.75%.

As to `COC(=O)C[C@H]1c2cc(C(F)(F)F)ccc2S(=O)(=O)N1C(C)(C)C`, the “activity change, negative = inhibition” value was inactive: -9.33%. In the case of `COc1cccc(CNC(=O)c2c(OC)cc(=O)n3c2CCN(C(=O)C2CC24CCCC4)CC3)c1` (centres undefined), the “activity change, negative = inhibition” value is inactive: 0.649%. Under `COc1cc(CN2CCOc3ccc(C(O)c4cccnc4)cc3C2)cc(OC)c1` (centres undefined) stands inactive: 11.6%; under `COc1ccc2c(c1)OCC(Cc1ccc(OC)c(OC(C)=O)c1)C2=O` (centres undefined), inactive: -18.9%. Turning to `CCN(CC)C1CCN(C(=O)c2cnn(-c3ncc4c(n3)-c3ccccc3CCC4)c2COC)C1` (centres undefined), the “activity change, negative = inhibition” value was inactive: 13.8%. With `COC(c1ccc2c(c1)CN(C(=O)Cn1nc(C)c3ccccc3c1=O)CCO2)C1CCCCC1` (centres undefined), the “activity change, negative = inhibition” value is inactive: 1.51%.

Regarding `COc1ccc(Oc2ncc3nc(-c4cn(C)c5ccccc45)c(=O)n(C4CC4)c3n2)cc1`, the “activity change, negative = inhibition” value is inactive: 10.9%.

As for `OC[C@H]1O[C@@](CO)(O[C@H]2O[C@H](CO)[C@@H](O)[C@H](O)[C@H]2O)[C@@H](O)[C@@H]1O`, the “activity change, negative = inhibition” value was inactive: 17.2%. The figure for `CC(=O)NCCNc1ncnc2ccc(-c3ccoc3)cc12` is inactive: 5.73%. The figure for `CC1(C)OC(=O)C=C[C@@]2(C)C1C[C@@H](O)[C@]1(C)C2CC[C@@]2(C)C(c3ccoc3)OC(=O)[C@H]3O[C@]321` (some centres undefined) is inactive: 22.3%; for `CCCCC(=O)O[C@]1(C(=O)CO)CC[C@H]2[C@@H]3CCC4=CC(=O)CC[C@]4(C)[C@H]3[C@@H](O)C[C@@]21C` it is inactive: 8.06%; for `Cc1noc(NS(=O)(=O)c2ccc(N)cc2)c1C` it is “inactive”. On to `Cn1c(=O)c(-c2ccc(F)cc2)nc2cncnc21`, for which the “activity change, negative = inhibition” value is inactive: 16.8%. The entry for `CCc1cccc2c3c([nH]c12)C(CC)(CC(=O)O)OCC3` (centres undefined) is “inactive”.

In the case of `CC[N+](CC)(CC)CCC(O)(c1ccccc1)C1CCCCC1` (centres undefined), the “activity change, negative = inhibition” value was inactive: -3.77% [at 75.8 µM]. Under `CC(C)C(NS(C)(=O)=O)c1nnc2n1CCN(Cc1ccc3cccnc3c1)CC2` (centres undefined) stands inactive: 8.21%; under `C[C@]12CC[C@@H]3c4ccc(O)cc4CC[C@H]3[C@@H]1C[C@@H](O)[C@@H]2O`, inactive: 2.28%. Under `CC[C@@H](C)[C@H](NS(=O)(=O)c1cccc2ccccc12)C(=O)N[C@H](C=O)Cc1c[nH]c2ccccc12` stands inactive: -14.2%. Consider `CN(C)CCCO[C@@H]1[C@H]2OC(C)(C)O[C@H]2O[C@@H]1[C@H](O)CO`, for which the “activity change, negative = inhibition” value is inactive: -0.672% [at 75.8 µM]. As to `COc1cc(=O)n2c(c1C(=O)NCc1ccco1)CCN(C(=O)c1c(F)ccc(F)c1F)CC2`, the “activity change, negative = inhibition” value was inactive: 1.06%. Regarding `COc1ccccc1CNc1ncnc2ccc(-c3cccnc3)cc12`, the “activity change, negative = inhibition” value was inactive: 12.2%. Under `CCCCN1CCCC1C(=O)Nc1c(C)cc(C)cc1C` (centres undefined) stands inactive: 2.98%.
